Measured values: publication PMC6630832, “3-Vinylazetidin-2-Ones: Synthesis, Antiproliferative and Tubulin Destabilizing Activity in MCF-7 and MDA-MB-231 Breast Cancer Cells” (Pharmaceuticals, 2019)
Read-outs that look alike come from different tables or passages of the source.

Assays:
Assay in all cases: NCI60 screen (SRB), Non-Small Cell Lung Cancer
[1] = test system: NCI-H552; settings: NCI60 Non-Small Cell Lung Cancer cell line NCI-H552
Text: (§1) The results are summarized in Tables S3–S5, Supplementary Information.

[2] = test system: NCI-H23; settings: Homo sapiens; NCI60 Non-Small Cell Lung Cancer cell line NCI-H23
Text: as §1

[3] = test system: A549/ATCC; settings: Homo sapiens; NCI60 Non-Small Cell Lung Cancer cell line A549/ATCC
Text: as §1

[4] = test system: NCI-H332M
Text: as §1

[5] = test system: NCI-H226; settings: Homo sapiens; NCI60 Non-Small Cell Lung Cancer cell line NCI-H226
Text: as §1

[6] = test system: HOP-62; settings: Homo sapiens; NCI60 Non-Small Cell Lung Cancer cell line HOP-62
Text: as §1

[7] = test system: EKVX; settings: Homo sapiens; NCI60 Non-Small Cell Lung Cancer cell line EKVX
Text: as §1

[8] = test system: NCI-H460; settings: Homo sapiens; NCI60 Non-Small Cell Lung Cancer cell line NCI-H460
Text: as §1

[9] = test system: HOP-92; settings: Homo sapiens; NCI60 Non-Small Cell Lung Cancer cell line HOP-92
Text: as §1

SMILES	GI50 [1] [nM]	GI50 [2] [nM]	GI50 [3] [nM]	GI50 ([4]; NCI60 Non-Small Cell Lung Cancer cell line NCI-H332M, read-out: GI50) [nM]	GI50 [5] [nM]	GI50 [6] [nM]	GI50 [7] [nM]	GI50 [8] [nM]	GI50 ([4]; NCI-H332M) [nM]	GI50 [9] [nM]	GI50 ([4]; NCI-H332M, read-out: GI50) [nM]
C=CC1C(=O)N(c2cc(OC)c(OC)c(OC)c2)C1c1ccc(OC)c(O)c1 (stereo not shown) [Compound 7s, 4-[3-Hydroxy-4-methoxyphenyl]-1-(3,4,5-trimethoxyphenyl)-3-vinylazetidin-2-one]	< 10	< 10	< 10	85.5	< 10	< 10	25.8	13.1	–	–	–
C=CC1C(=O)N(c2cc(OC)c(OC)c(OC)c2)C1c1ccc(OC)c(N)c1 (stereo not shown) [Compound 7t, 4-(3-Amino-4-methoxyphenyl)-1-(3,4,5-trimethoxyphenyl)-3-vinylazetidin-2-one]	–	–	–	–	–	–	–	–	64.5	–	–
C=CC1C(=O)N(c2cc(OC)c(OC)c(OC)c2)C1c1ccc(OC)c(OP(=O)(O)O)c1 (stereo not shown) [Compound 17b, 2-Methoxy-5-(1-(3,4,5-trimethoxyphenyl)-4-oxo-3-vinylazetidin-2-yl)phenyl dihydrogen phosphate]	22.7	63.7	45.8	–	> 100000	90	–	38.6	–	1780	90.3
CCC1C(=O)N(c2cc(OC)c(OC)c(OC)c2)C1c1ccc(OC)c(OP(=O)(O)O)c1 (stereo not shown) [Compound 17c, 5-(3-Ethyl-1-(3,4,5-trimethoxyphenyl)-4-oxoazetidin-2-yl)-2-methoxyphenyl dihydrogen phosphate]	14.2	44.4	38.2	–	> 100000	24	–	35.2	–	97.9	44.9
